Experimental data reported in PubChem BioAssay AID504332 (National Center for Advancing Translational Sciences (NCATS), 2011).
In all, about 350,000 compounds went through this assay and about 31,000 (8.9%) were called active. Inconclusive results, whose numbers are uncertain, are shown with a selection of clear calls. The call rests on the fitted dose curve; in most records, active means well fitted inhibition curve with a large enough effect; inconclusive means small, poorly fitted or top-dose-only effect; inactive means no such curve, though single readings can be large or run the other way. Potencies beside an inconclusive call are fits to weak or partial responses and may not hold up.
Further: nearly all actives have a fitted effect of over 75% in size.
On the % scale 0 is the no-effect control and ±100 the full control effect; potency means the concentration at half of the fitted maximal effect; tags describe the fitted curve by direction and shape.

Each compound was assayed against Histone-lysine N-methyltransferase EHMT2 (Homo sapiens) (UniProt Q96KQ7) (assay: qHTS Assay for Inhibitors of Histone Lysine Methyltransferase G9a). Details: G9a H3K9 monomethylation, AlphaScreen, 2 h; activity, negative = inhibition: at 59 µM (top of the series) unless noted.
Chain of UniProt Q96KQ7 (Q96KQ7 whole entry, looked up): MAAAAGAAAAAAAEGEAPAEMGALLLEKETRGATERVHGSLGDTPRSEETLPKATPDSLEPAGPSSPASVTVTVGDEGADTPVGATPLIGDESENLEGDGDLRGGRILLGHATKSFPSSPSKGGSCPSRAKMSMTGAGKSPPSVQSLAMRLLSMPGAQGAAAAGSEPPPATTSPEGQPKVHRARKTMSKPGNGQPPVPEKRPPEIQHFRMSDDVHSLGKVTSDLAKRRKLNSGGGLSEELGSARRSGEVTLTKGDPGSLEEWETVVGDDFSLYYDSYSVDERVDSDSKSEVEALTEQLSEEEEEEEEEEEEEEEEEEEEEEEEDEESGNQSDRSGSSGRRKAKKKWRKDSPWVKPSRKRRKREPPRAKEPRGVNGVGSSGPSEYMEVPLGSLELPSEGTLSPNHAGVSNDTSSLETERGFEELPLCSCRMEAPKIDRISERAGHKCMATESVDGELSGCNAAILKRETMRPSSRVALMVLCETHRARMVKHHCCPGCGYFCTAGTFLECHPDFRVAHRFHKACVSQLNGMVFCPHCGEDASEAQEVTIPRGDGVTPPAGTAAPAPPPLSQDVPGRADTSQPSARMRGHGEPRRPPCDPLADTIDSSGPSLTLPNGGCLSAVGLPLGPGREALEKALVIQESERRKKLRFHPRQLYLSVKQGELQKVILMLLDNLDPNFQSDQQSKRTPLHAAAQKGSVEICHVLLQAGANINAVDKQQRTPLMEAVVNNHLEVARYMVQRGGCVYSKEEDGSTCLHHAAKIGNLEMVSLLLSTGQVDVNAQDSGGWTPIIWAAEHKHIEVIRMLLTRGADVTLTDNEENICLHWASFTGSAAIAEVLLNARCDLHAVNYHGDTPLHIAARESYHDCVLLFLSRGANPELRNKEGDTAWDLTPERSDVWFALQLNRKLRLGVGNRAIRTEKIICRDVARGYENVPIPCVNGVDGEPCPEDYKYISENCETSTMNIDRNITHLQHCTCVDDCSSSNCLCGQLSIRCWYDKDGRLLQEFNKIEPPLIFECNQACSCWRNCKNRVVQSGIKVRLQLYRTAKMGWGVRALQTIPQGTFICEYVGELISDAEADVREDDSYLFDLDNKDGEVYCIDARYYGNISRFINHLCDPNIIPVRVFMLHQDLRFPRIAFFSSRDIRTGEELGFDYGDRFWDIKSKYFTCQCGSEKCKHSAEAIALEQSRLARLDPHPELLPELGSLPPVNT
Method in brief: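 Step 1: enzyme (final 20 nM) with compound, 15 min RT. Step 2: substrate peptide 500 nM and SAM 20 uM, 2 h RT. Step 3: anti-H3K9me1 antibody and AlphaScreen beads, 10 min, then plate read.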
In the case of CC1=C(C#N)C(c2ccccc2)C2=C(N1)c1ccccc1C2=O (configuration not stated), the Potency is reported as active: 44.7 µM. With Cc1cc(CN2C(=O)c3ccccc3C2=O)cc(N2CCOCC2)c1 the Potency was inconclusive: 89.1 µM [inhibitor, single point]. In the case of CCOC(=O)C1=C(C)NC(C)=C(C(=O)OCC)C1c1c(F)c(F)c(F)c(F)c1F, the Potency is reported as “inactive”. For Cc1ccc(C(=O)Nc2cc3[nH]c(=O)oc3cc2C)cc1, the Potency was “inactive”. In the case of O=C(Cn1cnc2sc(-c3ccccc3)cc2c1=O)NCc1ccco1, the Potency is reported as active: 12.6 µM. In the case of NC(=O)c1ccc(NC(=O)COC(=O)c2c[nH]c3ccccc23)cc1, the Potency is reported as inconclusive: 89.1 µM [inhibitor, single point]. In the case of Cc1nc(-c2cccc3ccccc23)ccc1C(=O)O, the Potency is reported as inconclusive: 89.1 µM [inhibitor, single point]. For Cc1ccc2c(CC(=O)N(Cc3ccc(N(C)C)cc3)Cc3ccco3)coc2c1C, the Potency was active: 8.91 µM. In the case of Cc1nn(CCC(=O)NNC(=S)Nc2ccc([N+](=O)[O-])cc2)c(C)c1[N+](=O)[O-], the Potency is reported as active: 8.91 µM. For Cc1cc(C)nc(NC(=O)c2c(-c3ccccc3Cl)noc2C)n1, the Potency was “inactive”. In the case of O=C(O)C1=C[C@@H](c2ccccc2)C[C@@H](OCc2ccc(CO)cc2)O1, the activity, negative = inhibition is reported as inconclusive: -84.1% [inhibitor]. In the case of Cc1cc(C)cc(NC(=O)C2C3C=CC4(O3)C2C(=O)N(CCCN2CCCCC2)C4C(=O)NC2CCCCC2)c1 (configuration not stated), the Potency is reported as inconclusive: 89.1 µM [inhibitor, single point]. For O=C(O)CSc1nnc(-c2cccnc2)n1Cc1ccccc1, the Potency was inconclusive: 79.4 µM [inhibitor, single point]. For O=C(CSc1nnc(-c2ccncc2)n1Cc1ccco1)Nc1ccccc1F, the Potency was “inactive”. For COc1ccccc1N1CCN(C(=O)COc2ccc(S(=O)(=O)NC(C)(C)C)cc2)CC1, the Potency was “inactive”. For COc1ccc(-n2c(C)cc(C(=O)CN3C(=O)C(=O)N(Cc4ccccc4)C3=O)c2C)cc1, the Potency was inconclusive: 50.1 µM [inhibitor, partial curve, poor fit]. In the case of O=C(O)c1cc(-c2ccncc2)nc2ccc(S(=O)(=O)N3CCOCC3)cc12, the Potency is reported as inconclusive: 79.4 µM [inhibitor, single point]. O=C(c1cc2cc(Br)cc(Br)c2oc1=O)N1CCOCC1 was tested, and the Potency was inconclusive: 79.4 µM [inhibitor, single point]. In the case of O=C(NCc1ccco1)C1CCN(S(=O)(=O)c2cccc3cccnc23)CC1, the Potency is reported as inconclusive: 89.1 µM [inhibitor, single point]. In the case of COc1cccc(-c2cc(C(F)(F)F)n3ncc(C(=O)OC(C)C)c3n2)c1, the Potency is reported as “inactive”. With CCOC(=O)C1(Cc2ccccc2)CCCN(Cc2ccncc2)C1 (configuration not stated) the Potency was inconclusive: 44.7 µM [inhibitor, partial curve]. With CS(=O)(=O)c1ccccc1-c1nnc(NC(=O)c2ccco2)o1 the Potency was active: 14.1 µM. For NC(=O)c1ccccc1OCC(=O)NC12CC3CC(CC(C3)C1)C2, the Potency was inconclusive: 5.01 µM [inhibitor, partial curve, poor fit]. O=C(NCCCN1CCOCC1)C(=O)NCc1ccccc1Cl was tested, and the Potency was inconclusive: 6.31 µM [inhibitor, single point]. C=CCn1c(SC(C)C(=O)NCc2ccc3c(c2)OCO3)nnc1C1CCCCC1 (configuration not stated) was tested, and the Potency was inconclusive: 89.1 µM [inhibitor, partial curve, poor fit]. For CNCCOc1ccccc1-c1ccccc1, the Potency was inconclusive: 3.55 µM [inhibitor, single point]. In the case of Cc1nn(-c2ccccc2)c(Cl)c1/C=C/C(=O)c1ccc(O)cc1, the Potency is reported as active: 15.8 µM. In the case of Cc1cccc(-n2ncc3c(NCCc4ccc(S(N)(=O)=O)cc4)ncnc32)c1, the Potency is reported as inconclusive: 79.4 µM [inhibitor, single point]. CCOC(=O)c1cc(NCc2cccs2)ccc1N1CCOCC1 was tested, and the Potency was inconclusive: 79.4 µM [inhibitor, single point]. With COC(=O)CSc1nnc(-c2sc3ccccc3c2Cl)o1 the Potency was active: 12.6 µM. With COC(=O)C1=C(C)N(CCc2cc(OC)c(OC)c(OC)c2)C(=O)N[C@H]1c1ccc(Br)cc1 the Potency was inconclusive: 89.1 µM [inhibitor, single point]. In the case of CCCCN(CCCC)/C(N)=N/c1nc(C)cc(C)n1, the activity, negative = inhibition is reported as inconclusive: -101% [inhibitor]. For COc1ccc(NC(=O)c2oc3ccccc3c2NC(=O)c2ccco2)c(OC)c1, the activity, negative = inhibition was inactive: -23.3% [at 2.33 µM]. With Cc1ccc(NC(=O)CN(C)S(=O)(=O)c2cccc3nsnc23)cc1Cl the Potency was inconclusive: 25.1 µM [inhibitor, single point]. With COc1ccc(-c2cnc3c(c2)CCC3(C#N)C#N)cc1 the Potency was “inactive”. For CCOC(=O)C1CCCN(Cc2cccc(Cl)c2)C1 (configuration not stated), the Potency was active: 8.91 µM. With Cc1ccc(Cl)c(NC(=S)N(CCCN2CCOCC2)Cc2ccco2)c1 the Potency was inconclusive: 44.7 µM [inhibitor, partial curve, poor fit]. In the case of COC(=O)c1sccc1NC(=O)c1cccnc1, the Potency is reported as “inactive”. In the case of Cn1cccc1CC(=O)NNC(=S)NC(=O)c1ccccc1Br, the Potency is reported as active: 17.8 µM. CCN(CC)C(=O)C1=C(C)Nc2nc3ccccc3n2C1c1cccc(OC)c1 (configuration not stated) was tested, and the Potency was inconclusive: 44.7 µM [inhibitor, partial curve, poor fit]. In the case of Cc1ccc(OCC(=O)OCC(=O)NC2CC2)cc1C, the activity, negative = inhibition is reported as inactive: -0.561% [at 2.33 µM]. O=[N+]([O-])C(=C1Nc2ccccc2N1)/C(Cl)=C(/Cl)Br was tested, and the Potency was active: 7.94 µM. With O=C(O/N=C(\c1ccccc1)c1ccccn1)c1ccc(Cl)c(Cl)c1 the Potency was active: 3.55 µM. For CCCN(CC(=O)Nc1ccccc1C)C(=O)c1ccc(N2CCCCC2)c([N+](=O)[O-])c1, the Potency was active: 50.1 µM. For Cc1ccc(C(c2c(C)[nH][nH]c2=O)c2c(C)[nH][nH]c2=O)cc1[N+](=O)[O-], the Potency was inconclusive: 20 µM [inhibitor, single point]. For O=C(O)c1ccccc1C(=O)Nc1nccs1, the activity, negative = inhibition was inactive: -0.423% [at 0.0925 µM]. COc1cc(OC)c(N(C)C(=O)Cn2ncc3c(=O)oc4ccccc4c32)cc1Cl was tested, and the Potency was “inactive”.
